The list shows a part of the results. For part of these data: At the low end of the ranking the order means little. For part of these data: Measured with an extract: partners may take part in the binding.
Legend:
Conditions in all cases: 20 mM HEPES pH 7.9, 100 mM NaCl, 1 mM DTT, 0.2 mg/mL BSA, 0.02% Triton X-100, 2% milk, 0.4 mg/mL salmon testes DNA; 1 h; temperature not stated; high values mean tight binding; double strand, one strand shown; sequences stand for … in GCCTAGCAC…GTGCTAGGTCTTGATTCGCTTGACGCTGCTG
PU.1 (IVT) = PU.1 (IVT) (UniProt P17947); assay: protein-binding microarray (PBM)
[1] = biological target: T1, FLI1 (endogenous, THP-1 nuclear extract) (UniProt Q01543); assay: nuclear extract protein-binding microarray (nextPBM)
T1 sequence: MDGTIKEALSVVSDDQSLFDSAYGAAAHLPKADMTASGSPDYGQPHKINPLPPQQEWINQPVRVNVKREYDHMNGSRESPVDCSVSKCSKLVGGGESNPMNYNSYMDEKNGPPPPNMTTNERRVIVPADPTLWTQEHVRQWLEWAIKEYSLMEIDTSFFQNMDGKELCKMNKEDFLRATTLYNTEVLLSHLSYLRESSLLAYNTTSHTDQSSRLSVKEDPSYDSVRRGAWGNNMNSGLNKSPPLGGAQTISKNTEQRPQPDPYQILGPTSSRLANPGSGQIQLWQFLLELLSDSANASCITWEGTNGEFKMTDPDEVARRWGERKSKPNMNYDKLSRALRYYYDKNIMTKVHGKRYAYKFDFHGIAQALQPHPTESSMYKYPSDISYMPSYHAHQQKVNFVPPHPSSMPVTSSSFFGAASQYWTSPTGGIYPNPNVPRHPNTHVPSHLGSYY

[2] = tested on: PU.1 (endogenous, THP-1 nuclear extract) + IRF8 (endogenous, THP-1 nuclear extract); assay: as above

TGAAACAGGAAGTGAATCCA
binding signal (PU.1 (IVT)): 6.9 z-score | binding signal [1]: 5.51 z-score | binding signal [2]: 7.11 z-score

TGAAACAGGAAGTGAAACTA
binding signal (PU.1 (IVT)): 6.92 z-score | binding signal [1]: 6.05 z-score | binding signal [2]: 85.5 z-score

TGAAACAGGAAGTGAAACCA
binding signal (PU.1 (IVT)): 6.46 z-score | binding signal [1]: 5.62 z-score | binding signal [2]: 83.3 z-score

GATAAGAGGAACTCAAAGCT
binding signal (PU.1 (IVT)): 3.68 z-score | binding signal [1]: 1.15 z-score | binding signal [2]: -0.102 z-score

AGATGGAGGAAGTGAAACCA
binding signal (PU.1 (IVT)): 3.96 z-score | binding signal [1]: 3.44 z-score | binding signal [2]: 56.5 z-score

CTGCCAGGGAAGTGACAGCA
binding signal (PU.1 (IVT)): 1.14 z-score | binding signal [1]: 0.765 z-score | binding signal [2]: -0.2 z-score

CTGCCAGGGAAGTGAAAGCC
binding signal (PU.1 (IVT)): 0.927 z-score | binding signal [1]: 0.939 z-score | binding signal [2]: 1.95 z-score

TGAGAGGAGAAGTGAACCCT
binding signal (PU.1 (IVT)): 1.03 z-score | binding signal [1]: 0.173 z-score | binding signal [2]: -0.365 z-score

AAAAAGAGGAACTGAAACTA
binding signal (PU.1 (IVT)): 7.78 z-score | binding signal [1]: 4.13 z-score | binding signal [2]: 71.9 z-score

AGAAAGTGGAAGTGAAACTG
binding signal (PU.1 (IVT)): 3.67 z-score | binding signal [1]: 2.91 z-score | binding signal [2]: 61 z-score

AGGGAGAGGAAGTGAAACTA
binding signal (PU.1 (IVT)): 4.01 z-score | binding signal [1]: 3.67 z-score | binding signal [2]: 65.4 z-score

TGACAGGAGAAGTGAAACCT
binding signal (PU.1 (IVT)): 0.655 z-score | binding signal [1]: 0.563 z-score | binding signal [2]: 23.5 z-score

AAGGGGAGGAAGTGAAACTC
binding signal (PU.1 (IVT)): 3.36 z-score | binding signal [1]: 3.26 z-score | binding signal [2]: 37.9 z-score

CTGGCTGGGAACTGAAACTC
binding signal (PU.1 (IVT)): 0.155 z-score | binding signal [1]: -0.385 z-score | binding signal [2]: 8.52 z-score

TAAAGGAGGAACTGAACCCA
binding signal (PU.1 (IVT)): 3.5 z-score | binding signal [1]: 0.973 z-score | binding signal [2]: 0.588 z-score

GATAAGATGAACTGAAAGCT
binding signal (PU.1 (IVT)): -0.635 z-score | binding signal [1]: -0.281 z-score | binding signal [2]: 0.561 z-score

TGAAACAGGAAGTGTAACCA
binding signal (PU.1 (IVT)): 6.22 z-score | binding signal [1]: 5.31 z-score | binding signal [2]: 2.73 z-score

TGAGAGGAGAAGGGAAACCT
binding signal (PU.1 (IVT)): 0.319 z-score | binding signal [1]: 1.06 z-score | binding signal [2]: 0.279 z-score

TGAGATGAGAAGTGAAACCT
binding signal (PU.1 (IVT)): 0.545 z-score | binding signal [1]: 0.12 z-score | binding signal [2]: 26 z-score

CTGCCAGGGCAGTGAAAGCA
binding signal (PU.1 (IVT)): -0.533 z-score | binding signal [1]: -0.0835 z-score | binding signal [2]: 1.19 z-score

GAGGGGAGGAACTGAAACTG
binding signal (PU.1 (IVT)): 1.11 z-score | binding signal [1]: 0.994 z-score | binding signal [2]: 19.8 z-score

TATAGGAGGAACTGAAACCA
binding signal (PU.1 (IVT)): 2.42 z-score | binding signal [1]: 1.81 z-score | binding signal [2]: 29.6 z-score

AAATAAAGGAAGTGAAACAG
binding signal (PU.1 (IVT)): 5.01 z-score | binding signal [1]: 2.75 z-score | binding signal [2]: 8.59 z-score

TGAAATAGGAAGTGAAACCA
binding signal (PU.1 (IVT)): 4.47 z-score | binding signal [1]: 3.37 z-score | binding signal [2]: 63.6 z-score

CTGCCAGGGAAGTGAGAGCA
binding signal (PU.1 (IVT)): 1.15 z-score | binding signal [1]: 0.617 z-score | binding signal [2]: 0.528 z-score

GGTCTGAGGAAGTGAAACTT
binding signal (PU.1 (IVT)): 3.29 z-score | binding signal [1]: 2.91 z-score | binding signal [2]: 43.1 z-score

TTAAAGAGGAAGAGAAACTT
binding signal (PU.1 (IVT)): 3.4 z-score | binding signal [1]: 1.58 z-score | binding signal [2]: 3.85 z-score

CGGCAGAGGAAGTGAAACTA
binding signal (PU.1 (IVT)): 3.19 z-score | binding signal [1]: 3.72 z-score | binding signal [2]: 70.7 z-score

CTGTCAGGGAAGTGAAAGCA
binding signal (PU.1 (IVT)): 1.39 z-score | binding signal [1]: 1.05 z-score | binding signal [2]: 6.1 z-score

CAAAGGAGGAACTGAAACCA
binding signal (PU.1 (IVT)): 3.2 z-score | binding signal [1]: 2.13 z-score | binding signal [2]: 43.9 z-score

CACAAGGGGAAGTGAAACTC
binding signal (PU.1 (IVT)): 4.77 z-score | binding signal [1]: 3.63 z-score | binding signal [2]: 50 z-score

GAGAGGAGGAAGTGAAACTG
binding signal (PU.1 (IVT)): 4.65 z-score | binding signal [1]: 3.65 z-score | binding signal [2]: 61.9 z-score

AGAATGAGGAACTGAAACTA
binding signal (PU.1 (IVT)): 5.83 z-score | binding signal [1]: 3.45 z-score | binding signal [2]: 63.7 z-score

GAAATTAGGAAGTGAAAGCA
binding signal (PU.1 (IVT)): 4.06 z-score | binding signal [1]: 2.06 z-score | binding signal [2]: 13.7 z-score

GTGGCAGGGAACTGAAACTC
binding signal (PU.1 (IVT)): 0.317 z-score | binding signal [1]: -0.198 z-score | binding signal [2]: 13.2 z-score

GTAACAAGGAACTGAAACTC
binding signal (PU.1 (IVT)): 1.75 z-score | binding signal [1]: 1.16 z-score | binding signal [2]: 16.7 z-score

GTGGTAGGGAAGTGAAACTG
binding signal (PU.1 (IVT)): 3.26 z-score | binding signal [1]: 2.22 z-score | binding signal [2]: 46.7 z-score

TGAGAGGAGAAGTGGAACCT
binding signal (PU.1 (IVT)): 1.79 z-score | binding signal [1]: 0.599 z-score | binding signal [2]: 0.758 z-score

CTGCCAGGGAAGAGAAAGCA
binding signal (PU.1 (IVT)): -0.545 z-score | binding signal [1]: -0.122 z-score | binding signal [2]: 1.35 z-score

CAGAGAGGGAAGTGAAAGCA
binding signal (PU.1 (IVT)): 3.17 z-score | binding signal [1]: 2.08 z-score | binding signal [2]: 9.07 z-score

CAGGCAAGGAACTGAAACTC
binding signal (PU.1 (IVT)): 0.221 z-score | binding signal [1]: 0.242 z-score | binding signal [2]: 12.2 z-score

TTGCCAGGGAAGTGAAAGCA
binding signal (PU.1 (IVT)): 1.07 z-score | binding signal [1]: 1.02 z-score | binding signal [2]: 6.01 z-score

CTGCCAGGGAAGCGAAAGCA
binding signal (PU.1 (IVT)): -0.158 z-score | binding signal [1]: 0.621 z-score | binding signal [2]: 7.49 z-score

TGAGAGTAGAAGTGAAACCT
binding signal (PU.1 (IVT)): 0.287 z-score | binding signal [1]: -0.0654 z-score | binding signal [2]: 17.7 z-score

CAAAATGGGAAGTGAAACTT
binding signal (PU.1 (IVT)): 5.62 z-score | binding signal [1]: 3.02 z-score | binding signal [2]: 61 z-score

GATAAGAGGAACTGAAAGAT
binding signal (PU.1 (IVT)): 4.13 z-score | binding signal [1]: 1.52 z-score | binding signal [2]: 2.42 z-score

GATCAGAGGAACTGAAAGCT
binding signal (PU.1 (IVT)): 1.34 z-score | binding signal [1]: 0.772 z-score | binding signal [2]: 0.939 z-score

TAAAGGAGGAATTGAAACCA
binding signal (PU.1 (IVT)): 1.22 z-score | binding signal [1]: 0.879 z-score | binding signal [2]: 13.1 z-score

CTGGTAGGGAACTGAAACTC
binding signal (PU.1 (IVT)): 1.37 z-score | binding signal [1]: 0.183 z-score | binding signal [2]: 13.7 z-score

TGAAACAGTAAGTGAAACCA
binding signal (PU.1 (IVT)): 0.111 z-score | binding signal [1]: 0.0674 z-score | binding signal [2]: 17.1 z-score

GGTGACAGGAAGTGAAACTG
binding signal (PU.1 (IVT)): 3.24 z-score | binding signal [1]: 5.25 z-score | binding signal [2]: 47.4 z-score

TGGCAGAGGAAGTGAAACTC
binding signal (PU.1 (IVT)): 3.59 z-score | binding signal [1]: 3.55 z-score | binding signal [2]: 38.2 z-score

TGAAACTGGAAGTGAAACCA
binding signal (PU.1 (IVT)): 1.68 z-score | binding signal [1]: 2.35 z-score | binding signal [2]: 52.1 z-score

AATAAAAGGAAATGAAAGTA
binding signal (PU.1 (IVT)): 1.46 z-score | binding signal [1]: 2.47 z-score | binding signal [2]: 9.03 z-score

GATAAGAGGAAATGAAAGCT
binding signal (PU.1 (IVT)): 3.37 z-score | binding signal [1]: 2.53 z-score | binding signal [2]: 2.62 z-score

AAAAAGGGGAAATGAAACTA
binding signal (PU.1 (IVT)): 6.37 z-score | binding signal [1]: 3.94 z-score | binding signal [2]: 64.3 z-score

TGAGAGGAAAAGTGAAACCT
binding signal (PU.1 (IVT)): -0.416 z-score | binding signal [1]: 0.841 z-score | binding signal [2]: 25.8 z-score

From paper PMC6451091
